Laboratory results published in patent US20250326840A1 (QURE BIOTECHNOLOGY SHANGHAI, published 2025).
Where two headings read alike, the source gives them in different places.

What was measured:
[1] = target: T1, human PD-L1 on HCC827 cells (human, UniProt Q9NZQ7); test: FACS on HCC827 cells
T1 construct: whole, on cells; also called HCC827 cells naturally expressing human PD-L1

PD-L1-his (QPP09) [2] = target: T2, PD-L1-his (QPP09) (human, UniProt Q9NZQ7 fragment, limits assumed); test: SPR, Biacore 8K
T2 construct: also called human PD-L1; human PD-L1 recombinant protein

PD-L1-his (QPP09) [3] = target: T2, PD-L1-his (QPP09); test: SPR, Biacore 8K; remark: listed apart in the source
T2 sequence (Q9NZQ7 19-239 limits assumed): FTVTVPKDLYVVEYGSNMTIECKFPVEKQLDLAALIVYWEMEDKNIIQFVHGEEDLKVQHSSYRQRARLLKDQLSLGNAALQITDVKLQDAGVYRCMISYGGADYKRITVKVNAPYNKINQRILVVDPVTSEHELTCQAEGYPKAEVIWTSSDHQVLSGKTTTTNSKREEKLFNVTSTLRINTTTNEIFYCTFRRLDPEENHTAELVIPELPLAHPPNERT

PD-L1-mouse Fc protein [4] = target: T3, PD-L1-mouse Fc protein (human, UniProt Q9NZQ7 fragment, limits assumed); test: blocking ELISA: QP1138 (PD1-FC) coated, PDL1-mouse FC mixed with the antibody, HRP anti-mouse IgG; blocked partner: PD-1; unit from the x axis Log(Conc.(nM))
PD-L1-mouse Fc protein [5] = target: T3, PD-L1-mouse Fc protein; test: competitive ELISA, CD80 coated, PD-L1-mouse Fc
T3 sequence (Q9NZQ7 19-239 limits assumed): as above

PD-L1-mouse Fc protein [6] = target: T3, PD-L1-mouse Fc protein; test: competitive ELISA, PD-1 coated, PD-L1-mouse Fc

B1: QP3447 (Fc fusion)
chain: [no letters for human IgG1 Fc with C220S L234A L235A K338A (EU numbers)]GGGSGGGGSGGGGSGGGGSEVQLLESGGGLVQPGGSLRLSCAASGFTLDDYAIGWFRQAPGKGREGVSCISKSGETTFFVESVKDRFTISRDNSKNTLYLQMNSLRAEDTAVYYCATGSWCTVGSMSRQFYRQFFHSWGQGTLVTVSS
notes: Anti-PD-L1 nanobody VHH fused to the C-terminus of FC; also called FC-PD-L1VHH; PD-L1 single component control
With B1 the EC50 [1] was 119 pM, the Kd (PD-L1-his (QPP09) [2]) was 479 pM and the koff (PD-L1-his (QPP09) [2]) was 0.000411 s⁻¹. The kon (PD-L1-his (QPP09) [2]) was 858000 M⁻¹ s⁻¹, the Kd (PD-L1-his (QPP09) [3]) was 479 pM and the koff (PD-L1-his (QPP09) [3]) was 0.000411 s⁻¹. The kon (PD-L1-his (QPP09) [3]) was 858000 M⁻¹ s⁻¹, the IC50 (PD-L1-mouse Fc protein [4]) was 445 pM and the IC50 (PD-L1-mouse Fc protein [5]) was 746 pM. For the same binder, the IC50 (PD-L1-mouse Fc protein [6]) was 951 pM.

B2: QP509 (Fc fusion)
chain: EVQLLESGGGLVQPGGSLRLSCAASGFTLDDYAIGWFRQAPGKGREGVSCISKSGETTFFVESVKDRFTISRDNSKNTLYLQMNSLRAEDTAVYYCATGSWCTVGSMSRQFYRQFFHSWGQGTLVTVSS[no letters for human IgG1 Fc with C220S L234A L235A K338A (EU numbers)]
notes: Anti-PD-L1 nanobody VHH fused to the N-terminus of FC; also called PD-L1VHH-FC
With B2 the Kd (PD-L1-his (QPP09) [2]) was 261 pM, the koff (PD-L1-his (QPP09) [2]) was 0.00043 s⁻¹ and the kon (PD-L1-his (QPP09) [2]) was 1.65e+06 M⁻¹ s⁻¹. It also gave an IC50 (PD-L1-mouse Fc protein [4]) of 338 pM.
